# Measurements: the supplement of paper PMC3334620
# Over roughly 33,000 sequences, “E-score (-0.5 to 0.5)” has its median near -0.035; the highest 2% begin near 0.35. Some of the results follow.
# Biological target: T1, Pdr3 (UniProt P33200)
# T1 sequence: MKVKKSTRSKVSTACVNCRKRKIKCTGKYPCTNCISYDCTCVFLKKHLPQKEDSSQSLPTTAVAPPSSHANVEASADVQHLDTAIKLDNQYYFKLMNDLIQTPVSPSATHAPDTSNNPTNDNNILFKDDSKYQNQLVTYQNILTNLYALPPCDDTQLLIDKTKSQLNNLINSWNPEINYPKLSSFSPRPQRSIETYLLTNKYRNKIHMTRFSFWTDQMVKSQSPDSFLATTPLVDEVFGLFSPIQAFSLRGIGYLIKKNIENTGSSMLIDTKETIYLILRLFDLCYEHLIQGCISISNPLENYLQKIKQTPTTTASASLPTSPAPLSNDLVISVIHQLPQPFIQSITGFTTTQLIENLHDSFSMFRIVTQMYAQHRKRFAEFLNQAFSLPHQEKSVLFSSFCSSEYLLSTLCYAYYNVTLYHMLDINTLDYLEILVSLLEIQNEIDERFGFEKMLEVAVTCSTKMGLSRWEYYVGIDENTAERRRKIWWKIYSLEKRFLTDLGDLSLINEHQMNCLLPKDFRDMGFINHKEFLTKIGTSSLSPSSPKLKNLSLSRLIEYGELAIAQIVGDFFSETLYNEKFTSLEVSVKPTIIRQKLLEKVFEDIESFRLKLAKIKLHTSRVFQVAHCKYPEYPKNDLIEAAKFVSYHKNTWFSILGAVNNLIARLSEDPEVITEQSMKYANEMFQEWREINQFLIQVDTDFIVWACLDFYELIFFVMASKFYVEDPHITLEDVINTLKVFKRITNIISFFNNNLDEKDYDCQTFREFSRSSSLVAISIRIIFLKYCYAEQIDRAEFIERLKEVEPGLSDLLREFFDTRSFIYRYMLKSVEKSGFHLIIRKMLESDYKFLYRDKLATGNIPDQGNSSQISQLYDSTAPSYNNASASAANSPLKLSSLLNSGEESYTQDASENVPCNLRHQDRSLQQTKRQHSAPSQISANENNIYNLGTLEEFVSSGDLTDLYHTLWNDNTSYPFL
# Test: PBM E-score (8-mer binding enrichment) (E-score (-0.5 to 0.5)); higher = stronger / more preferred TF binding; most listed sequences are background and not binding sites
# Settings: protein concentration: 200 nM; construct: GST-full length
# Description: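 Universal 'all 10-mer' protein binding microarrays (Agilent AMADID 015681) probed with GST-tagged S. cerevisiae TFs (full-length or DBD) made by in vitro transcription/translation (PURExpress), about 100-200 nM. Bound TF was detected with fluorescent anti-GST. Each ungapped 8-mer (which stands for itself and its reverse complement) is scored by the PBM enrichment score (E-score), a modified Wilcoxon-Mann-Whitney statistic from -0.5 to +0.5, computed with the Universal PBM Analysis Suite. Scale: above 0.35 generally sequence-specific binding.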
row,Sequence,PBM E-score
1,ATACCTCC,-0.0487
2,ACGCTCCA,-0.0863
3,TCTCCGAA,0.257
4,AACATACC,-0.0381
5,AGATTGAA,-0.0668
6,TCATACCA,0.0464
7,ACAGGATA,-0.177
8,GCTGACAA,0.0279
9,AAAATCCC,0.0702
10,CTTGCAAC,-0.15
11,ATACAGAG,-0.223
12,GCCGCAAC,0.0476
13,AGTACGTG,-0.0324
14,ATCAACGC,-0.15
15,GGTGCCCA,-0.219
16,CGCGGTCA,0.307
17,ACTTACAG,-0.259
18,ACATCGGG,-0.0215
19,GAACCTAC,-0.0296
20,ACTTAGTA,0.0349
21,AAGCCTGA,-0.284
22,GTACTAGA,0.0176
23,AATACGAT,-0.153
24,CCGATGCA,0.143
25,CCGGATCA,0.389

row,Sequence,PBM E-score
1,GTTGGCGA,0.0642
2,CAGTCTCG,-0.203
3,ATACAGGG,0.102
4,CTCTACTA,-0.182
5,ATACGCGA,-0.0933
6,CCAGCTAG,-0.33
7,AGAAGAAG,0.0175
8,CTCAGGCA,0.0505
9,CCTGTGCC,-0.0891
10,GATAGCGA,-0.08
11,ATACCGCA,0.0658
12,CTGGTCCA,-0.064
13,CAGGCGGC,0.0461
14,CATATCGA,0.0824
15,GGTTGGGA,-0.0649
16,CTCAACAC,-0.035
17,CGGCTTGC,0.197
18,AACACAGC,0.125
19,ATCTATAC,-0.0121
20,CCACTCCC,0.152
21,ACCGTTGA,-0.0585
22,CTGACCCC,-0.131
23,ACACTTAT,-0.0908
24,ACCGTACT,0.00717
25,AATCCTCT,-0.246

row,Sequence,PBM E-score
1,CACTTCAG,-0.0576
2,GGAAGGAA,0.182
3,AGTCCCTC,-0.109
4,ACTCCGTC,0.206
5,GCCCGAAC,0.255
6,AGCTAGCC,-0.148
7,CCTCAACC,-0.118
8,CTCTCGGC,0.118
9,AAGTGGGA,0.12
10,GGTAGTAC,-0.0784
11,CTCCCGCA,0.145
12,GACATCAA,0.106
13,ACCCACCC,0.34
14,AGAAAGCA,0.0552
15,TGAAAACA,-0.033
16,AACACAAG,-0.165
17,ACTTGTGA,-0.124
18,AAGGTATG,-0.0602
19,ATTCGAGA,-0.0455
20,CGAAAACC,-0.0499
21,AATATTAT,0.217
22,CGTTAACC,-0.0928
23,GACTGAAA,-0.0895
24,AGCCATCA,-0.0552
25,GAGAAAGA,0.0611

row,Sequence,PBM E-score
1,TCTAGGAA,-0.25
2,AACCATAC,-0.119
3,TGACTACA,-0.262
4,CAACTGCG,-0.174
5,CTCCCTCC,0.0444
6,GAGCAAAA,-0.17
7,CACTACGC,-0.218
8,ATCCAGGA,-0.0717
9,AGATACTA,0.0852
10,AGGCCCTA,-0.122
11,GAACAGCC,-0.102
12,ACATTCGG,0.196
13,CACTTGGA,-0.00267
14,AGAGTCAC,-0.266
15,ACTAGTAA,-0.135
16,CAGGTAGG,-0.141
17,AGCATATC,0.0261
18,GCGTTTGA,-0.15
19,AATATTGT,0.0313
20,AATCTAAC,-0.0674
21,TAACCATA,-0.24
22,ACTACGTA,-0.0178
23,ACACCATA,-0.0235
24,CCCATCTA,-0.0481
25,ATGATCCA,-0.124

row,Sequence,PBM E-score
1,GTAGATGA,0.00924
2,TGGATCCA,0.096
3,GGCGAAAC,0.0538
4,GATCCCAC,0.105
5,ATTTGCGC,0.0546
6,AATCTTAG,-0.115
7,AGTGTTAT,0.0195
8,AAAGAGGG,-0.282
9,CTGCCATA,0.103
10,AGCGCTAC,-0.215
11,CATTCGTC,0.0902
12,GGTTGGCA,-0.184
13,CTAAGTCA,-0.175
14,CTACGTGA,-0.124
15,CCCAACTA,-0.0324
16,CCCGAGAG,0.0205
17,AATTCGCC,0.0278
18,ATAGCTGC,0.0774
19,GCGGGCAA,0.176
20,GAGGGGCC,-0.179
21,CTCCGCCA,0.165
22,CGATCCCG,0.361
23,TATGGTGA,-0.0424
24,GCTCAGCC,-0.183
25,GGGACCAA,0.108

row,Sequence,PBM E-score
1,CAAACTAA,0.129
2,AAGGATTC,0.0418
3,CCTTACAA,-0.0935
4,AGTAGTAG,-0.08
5,AATATACT,-0.0677
6,ACTTGCCC,-0.107
7,ATAGCCCA,0.0524
8,CCCCGCGA,0.201
9,CCCTGACA,-0.222
10,CGGAGGTC,0.29
11,TACAACGA,-0.0462
12,CAATTTGA,-0.0789
13,GAGGACAA,-0.135
14,AGCGTGGC,-0.0731
15,CTGTCGGC,0.172
16,CCAGCTGC,0.00985
17,GATTTGAC,-0.177
18,AATCTATG,-0.0262
19,ATAAGCTC,0.042
20,CGAAACCC,0.0963
21,ACACGCTG,-0.107
22,CATAGTTA,-0.0733
23,ACTTCGCT,-0.0552
24,AGTACTCA,-0.244
25,GTACCGGA,0.318

row,Sequence,PBM E-score
1,GGGGGTTA,-0.272
2,CCGGGATA,0.388
3,CGCCGTCC,0.115
4,CTATGTGC,-0.00314
5,CGGGCGAC,0.158
6,AGTCGTGA,-0.24
7,CCGGTCTC,0.18
8,AGCATGCG,0.00717
9,ACTAGAGA,-0.0945
10,CAAGTGTA,-0.154
11,GCGCGCAA,0.289
12,CTACTATA,0.136
13,ACAAGGAA,0.168
14,ACAATCCC,0.264
15,AAGTTGGT,-0.0146
16,GACTGGTA,0.106
17,AGCACTTG,-0.255
18,AAACGCAG,0.00726
19,AAGTTCAG,-0.098
20,CGCTGACC,0.108
21,AGTTAAGA,-0.0801
22,ACCTTCCC,0.0674
23,CTAGCACC,-0.136
24,GGGGTTAC,-0.0554
25,CTTGGACC,-0.243

row,Sequence,PBM E-score
1,CGGGAATA,0.331
2,AGCAGAAC,-0.103
3,GACCATAC,0.12
4,GGCGACCC,0.116
5,CGTATTGC,0.0393
6,ACGTTGGC,-0.237
7,CGGTAGAG,0.0223
8,CGGCCCGC,0.201
9,AGGCTGGC,-0.272
10,AGAAGCCT,-0.162
11,GAGGTCGA,-0.0533
12,GTGGATAA,0.0146
13,AAACAACG,0.0211
14,AGGCCTTG,-0.23
15,GCCGTCGA,0.104
16,TCACCCAA,0.0325
17,CAACCACC,0.013
18,GGCTCCCA,-0.268
19,ATGGAGGG,-0.276
20,ATTGCCGC,0.0297
21,AAGATGGG,-0.163
22,CGTTCTAA,0.0223
23,AAAATATC,0.0361
24,AGAATAAC,-0.162
25,CGGTACAA,0.138

row,Sequence,PBM E-score
1,AGTCCATG,-0.0461
2,ACCTGAAC,-0.176
3,GCTGATCC,0.214
4,GAGTTTCA,-0.0584
5,CCACGCGC,-0.202
6,CCGTTGTA,0.279
7,GCGTGTAC,-0.127
8,GATTTCGC,0.267
9,AGTGACCC,-0.0252
10,ATTGATCA,-0.0661
11,AATATCGC,0.24
12,CGCGATTA,0.173
13,CCCAAACA,-0.0368
14,GCAGCTAC,0.0148
15,AAGATTTA,-0.00253
16,CGCCTAAA,-0.0326
17,AGGTCAGC,-0.028
18,CCCATGCG,-0.0983
19,TATATCAA,0.104
